Out of some 48,000 compounds screened, about 1,200 (2.5%) were called active. About 2% were inconclusive and are not listed.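 The calls were made as follows: active = activation of at least 60% and not above a set upper limit (about 1 call in 100 departs from these limits); inconclusive = activation of 40% to 60%, or above that upper limit; inactive = activation under 40%.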 The list shows a part of the results.

Chain of UniProt O75388 (O75388 whole entry, looked up): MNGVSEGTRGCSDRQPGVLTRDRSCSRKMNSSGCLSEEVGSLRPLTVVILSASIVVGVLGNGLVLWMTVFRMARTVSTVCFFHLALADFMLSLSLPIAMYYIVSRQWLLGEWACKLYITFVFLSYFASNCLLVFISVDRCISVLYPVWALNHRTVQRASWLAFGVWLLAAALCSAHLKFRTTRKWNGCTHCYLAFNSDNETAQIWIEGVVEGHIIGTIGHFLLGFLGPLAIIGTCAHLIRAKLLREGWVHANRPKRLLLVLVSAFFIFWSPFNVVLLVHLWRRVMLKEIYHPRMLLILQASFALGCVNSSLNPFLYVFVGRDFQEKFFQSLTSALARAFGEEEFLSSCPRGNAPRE

In this test the target is Probable G-protein coupled receptor 32 (Homo sapiens) (UniProt O75388). Kind of test: qHTS for Agonists of Human Resolvin D1 Receptor DRV1. Also: 0% is about no effect. Particulars: CHO-K1 GPR32 beta-arrestin PathHunter luminescence, 90 min; at 76.9 µM; active compounds read high; zero percent set by DMSO-only wells. In outline:
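Engineered CHO-K1 line co-expressing GPR32-ProLink and EA-beta-arrestin. Compound treatment lasted 90 min at 37 °C. Luminescence was recorded after 1 h with substrate at ambient temperature, relative to DMSO basal wells.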
(In general: qHTS replaces the single test concentration by a dilution series.)
Consider `Cc1cccc(Cn2c(=O)n(CCCCC(=O)NCc3ccc4c(c3)OCO4)c(=O)c3ccccc32)c1`, for which the activation is inactive: -17.4%. For `O=C(NC1CCCC1)c1cnn(-c2ccc(F)cc2F)c1C1CCNCC1`, the activation was inactive: -2.77%. Regarding `CCC(=O)O[C@]1(C(=O)COC)[C@@H](C)C[C@H]2[C@@H]3CCC4=CC(=O)C=C[C@]4(C)C3(F)[C@@H](O)C[C@@]21C` (some centres undefined), the activation is inactive: 9.17%.

Consider `Cc1ccc(C2=NC(c3ccc(F)cc3)=Nc3ccc(C)cc3N2)cc1`, for which the activation is inactive: -7.2%. Under `CCSc1nnc2c(n1)OC(c1ccc(OC)cc1OC)N(C(C)=O)c1ccccc1-2` (centres undefined) stands inactive: -33.8%; under `COc1ccc(CCNC(=O)Cn2c(=O)n(-c3ccc(OC)c(OC)c3)c(=O)c3ccccc32)cc1OC`, inactive: 4.56%; under `COc1ccccc1OCC1CNC(=O)O1` (centres undefined), inactive: 4.77%.

As for `CCN(CC)CCNC(=O)CN1C(=O)c2cccnc2Oc2ccc(C)cc21`, the activation was inactive: -5.37%. The same measure for `COc1ccccc1OCCCCn1c(C2CC(=O)N(c3ccccc3Cl)C2)nc2ccccc21` (centres undefined): inactive: -1.53%; for `Cc1ccc(NC(=O)/C(C#N)=C/c2ccccc2Cl)cc1C`: inactive: 37.7%. In the case of `CCN(C(=O)c1sc2cc(OC)ccc2c1Cl)c1ccccc1`, the activation was inactive: -0.742%. `Cc1ccc(NC(=O)CN2c3ccccc3S(=O)(=O)c3ccccc32)cc1F`: the activation is inactive: 28.3%.

Take `CN(Cc1ccccc1)Cc1c(O)ccc2c(=O)c(-c3ccccc3)c(C(F)(F)F)oc12`: the activation was inactive: -9.73%. The same measure for `CCOC(=O)c1ccc(NC(=O)c2cn(-c3ccccc3)nc2-c2ccc(C)cc2)cc1`: inactive: -2.93%; for `Cc1oc2cc3oc(=O)c(CC(=O)N4CCCCC4)c(C)c3cc2c1C`: inactive: 0.246%; for `CCCc1ccc(S(=O)(=O)N2CCC(c3nnnn3-c3ccc(OC)cc3)CC2)cc1`: inactive: -11.6%.

Regarding `CCOc1cc(C#N)c(NC(=O)c2ccc(OC)c(S(=O)(=O)N3CCN(c4ccccc4)CC3)c2)cc1OCC`, the activation was inactive: -8.66%. In the case of `N#CC1=C2SCN(C3CCCCC3)CN2C(=O)CC1c1ccc(Br)cc1` (centres undefined), the activation was inactive: 31.3%. The same measure for `CCCOc1ccc(CNC(=O)c2oc3ccc4c(c3c2C)C(=O)CC(C)(CC)O4)cc1` (centres undefined): inactive: -12.1%. Regarding `CN1CCOC(c2ccccc2)c2ccccc2C1` (centres undefined), the activation is inactive: 38.2%. `COc1ccc(CNC(=O)Cn2c(=O)c3cccn3c3ccccc32)cc1`: the activation was inactive: -18.1%. Under `CSc1nc(-c2ccccc2Cl)nc2c1Cc1c(CO)cnc(C)c1O2` stands inactive: 14.5%; under `CCc1nnc2c(N3CCN(c4cccc(C(F)(F)F)c4)CC3)nc3ccccc3n12`, inactive: -8.91%. With `COc1ccc(N(CC(=O)N2CCc3ccccc3C2)S(=O)(=O)c2ccc(C)cc2)cc1Cl`, the activation was inactive: -1.68%. The same measure for `O=C(Cn1c(=O)n(Cc2ccco2)c(=O)c2oc3ccccc3c21)Nc1ccc(F)c(Cl)c1`: inactive: -9.18%; for `COc1cccc(CNc2ncnc3onc(C)c23)c1`: inactive: 32.8%. For the compound `O=C(Nc1c(C(=O)N2CCN(c3ccccc3F)CC2)oc2ccccc12)c1ccco1`, the activation was inactive: -11.7%.

Regarding `CNc1ccc(-c2nc(-c3ccccc3C)no2)cc1[N+](=O)[O-]`, the activation is inactive: -14.2%. `COc1ccc(C2=C(C(C)=O)Sc3nnc(-c4ccc(Cl)cc4)n3N2C(C)=O)cc1OC`: the activation was inactive: -33.1%. The same measure for `CN1CCN(CCCNC(=O)c2cnn(-c3ccc(F)cc3)c2-n2cccc2)CC1`: inactive: -5.21%; for `Cc1ccc(OCCCCn2cnc3ccccc32)cc1`: inactive: 27.9%; for `O=C(Nc1nc2n(n1)C(c1ccccc1)C=C(c1ccccc1)N2)c1ccccc1` (centres undefined): inactive: 13.8%. Under `COc1ccc(CNC(=O)CSc2n[nH]c(-c3ccc(F)cc3)n2)cc1` stands inactive: -0.93%; under `CS(=O)(=O)c1ccccc1-c1nnc(NC(=O)c2ccc3c(c2)OCCO3)o1`, inactive: -56.1%; under `COc1cc(Cl)c(C)cc1NC(=O)CCc1c(C)nc2c3cccnc3nn2c1C`, inactive: 3.1%. Under `O=C(Nc1ccc(C(=O)N2CCCCC2)cc1)c1nsc2ccccc12` stands inactive: 11%. With `Fc1ccc(Nc2nc(SCc3cccc(Cl)c3)nc3ccccc23)cc1`, the activation is inactive: -6.71%. For the compound `COc1ccc(CNC(=O)CN(c2ccc(C)cc2)S(=O)(=O)c2c(C)noc2C)cc1`, the activation was inactive: 27.2%.

Regarding `COc1ccc(CNC(=O)C(CCSC)NS(=O)(=O)c2ccc3c(c2)oc(=O)n3C)cc1` (centres undefined), the activation is inactive: -2.17%. Under `Cc1ccc(C)c(CN2C(=O)c3ccccc3S(=O)(=O)c3ccc(C(=O)Nc4cc(F)ccc4F)cc32)c1` stands inactive: -1.18%; under `COc1ccc(NC(=O)c2nnn(CC(=O)Nc3c(C)cc(C)cc3C)c2N)cc1OC`, inactive: -7.48%; under `CNC(=O)C(=O)NCC(c1ccc2c(c1)OCO2)N1CCOCC1` (centres undefined), inactive: -15.1%.

Turning to `Cc1cc(C)cc(NC(=O)CSc2nc3c([nH]c4ccccc43)c(=O)n2-c2ccc(F)cc2)c1`, the activation is inactive: -2.07%. The same measure for `CCOc1ccc(-c2cc(NC(=O)c3cccc(Cl)c3)c(C(=O)OC)s2)cc1`: inactive: 2.64%; for `CCCOc1ccc(C(=O)Nc2nonc2-c2ccc(OCC)cc2)cc1`: inactive: -12.7%.

For the compound `CC1=C(C(=O)Nc2ccccc2)C(c2ccc(C)cc2)n2nc(SCc3ccccc3C)nc2N1` (centres undefined), the activation is inactive: 6.82%. Under `O=C(c1ccc(F)cc1F)N1CCC(c2nc(-c3ccc(S(=O)(=O)N4CCCC4)cc3)no2)CC1` stands inactive: -4.62%; under `Cc1cccc(C)c1OCC(N)C(C)C` (centres undefined), inactive: -12.4%; under `COc1ccc(CNC(=O)C2=C(C)C(=O)OC23CCCCC3)cc1OC`, inactive: -4.95%.

Take `Cc1ccc(NC(=O)CSc2nnc(-c3nnn(-c4ccc(F)cc4)c3C)o2)cc1Br`: the activation is inactive: 8.88%. Take `CCc1ccc(C(=O)COC(=O)C(Cc2c[nH]c3ccccc23)NC(=O)c2ccc(CC)cc2)cc1` (centres undefined): the activation is inactive: -18.2%. The same measure for `COc1ccc(CNC(=O)c2cc3cc4ccc(C)cc4nc3o2)cc1`: inactive: 38.1%; for `O=C(Cc1ccccc1)Nc1c(C(=O)c2ccccc2)oc2ccccc12`: inactive: -25.7%; for `Cc1nc(-c2cccc(F)c2)sc1CCNC(=O)c1c(F)cccc1Cl`: inactive: 30.9%. Under `COc1cccc(N2CCN(C(=O)c3cc4c(s3)-c3c(C)cccc3OC4)CC2)c1` stands inactive: -16.5%; under `CCCCn1c(=NC(=O)C(C)(C)Oc2ccc(Cl)cc2)c(C(=O)OCC)cc2c(=O)n3ccccc3nc21`, inactive: -3.8%; under `Cc1ccc(NC(=O)CN2C(=O)COc3ccc(S(=O)(=O)N4CCCCCC4)cc32)cc1Cl`, inactive: -18.3%. The same measure for `Cc1ccc(OCC(=O)Nc2nonc2-c2ccc(C)c(C)c2)cc1C`: inactive: 19.5%; for `CC(C)Cc1nn2c(=O)cc(COC(=O)CNC(=O)c3ccc(C(C)(C)C)cc3)nc2s1`: inactive: 0.997%. On to `Cc1ccc(C)c(CNC(=O)c2ccc3c(c2)nc2n3CCOC2)c1`, for which the activation was inactive: -7.54%.

As for `CC1CCCN(CCCNC(=O)c2ccc3c(c2)N(Cc2cccc(Cl)c2)C(=O)c2ccccc2S3(=O)=O)C1` (centres undefined), the activation is inactive: -26.9%.

For `O=C(Nc1ccc(OC(F)(F)F)cc1)C(Cc1ccccc1)NS(=O)(=O)c1cccc2nsnc12` (centres undefined), the activation was inactive: -17.8%. The same measure for `COc1ccccc1C(=O)Nc1cccc(C(=O)OCc2cc(=O)n3nc(C4CC4)sc3n2)c1`: inactive: 7.51%; for `COC(=O)c1ccc(C2c3c(oc4ccc(C)cc4c3=O)C(=O)N2Cc2ccc3c(c2)OCO3)cc1` (centres undefined): inactive: 2.89%. In the case of `CCOC(=O)c1c(Nc2ccc(O)cc2)nnc(-c2ccccc2)c1-c1ccccc1`, the activation is active: 65.9%. Take `Cc1ccc(S(=O)(=O)c2nnn3c2nc(NCc2ccc4c(c2)OCO4)c2sccc23)cc1`: the activation was inactive: -20.9%.

Regarding `COc1cccc(CNC(=O)Cn2ccc3cc(S(=O)(=O)N4CCCC4)ccc32)c1OC`, the activation is inactive: 23.9%. For `OCC(O)CS` (centres undefined), the activation is inactive: -2.7%. The same measure for `Cc1ccc(S(=O)(=O)c2cnc(SCC(=O)Nc3ccc4c(c3)OCCO4)[nH]c2=O)cc1Cl`: inactive: 10.9%; for `CCOc1cc(C2C(C(=O)OC)=C(C)NC3=C2C(=O)c2ccccc23)ccc1OC` (centres undefined): inactive: -51.1%.

Turning to `O=C(NCCc1ccccc1)c1ccc2nc(N3CCCCC3)sc2c1`, the activation is inactive: -6.97%. Regarding `CCCn1c2ccccc2c2cnn(CC(=O)NCCCN3CCCCC3)c(=O)c21`, the activation was inactive: -16.8%. Take `CCOc1ccc(NC(=O)c2sc3nc4c(c(-c5ccccc5)c3c2N)C(=O)CC(C)(C)C4)cc1`: the activation is inactive: -0.261%. Consider `COc1ccc(OC)c(CN2CCN(S(=O)(=O)c3ccccc3)CC2)c1`, for which the activation was inactive: -3.7%. For `Cc1ccccc1-c1ccnc2[nH]n(-c3ccccc3)c(=O)c12`, the activation was inactive: -19.6%. Under `O=S(=O)(NCC(c1ccco1)N1CCOCC1)c1ccc(Br)cc1` (centres undefined) stands inactive: 29.8%; under `Cc1ccccc1NC(=O)c1cn(-c2ccccc2)nc1-c1ccccc1`, inactive: -18.7%. On to `Cc1ccc2oc(C(=O)N(Cc3ccc(N(C)C)cc3)CC3CCCO3)c(C)c2c1` (centres undefined), for which the activation was inactive: -31.4%.

As for `CCOC(=O)c1c(NC(=O)CSc2cn(CCNC(=O)c3cccc(C(F)(F)F)c3)c3ccccc23)sc2c1CCC2`, the activation was inactive: -2.1%. The same measure for `CN1CCC(=C2c3ccccc3CCc3sccc32)CC1`: inactive: 15.8%; for `CC(NC(=O)C1CCN(S(=O)(=O)c2ccc(F)cc2)CC1)c1ccccc1` (centres undefined): inactive: 6.62%. As to `CC1CCC(N2CC(=O)N(C3CCCCC3)C(c3ccc(Cl)cc3)C2=O)CC1` (centres undefined), the activation is inactive: -17.3%. The same measure for `O=C(Nc1ccc(Br)cc1)c1cc(-c2cccs2)nc2ccccc12`: inactive: -0.0319%; for `COc1cccc(C(=O)Nc2nc3ccc(S(=O)(=O)N4CCCC4)cc3s2)c1`: inactive: -9.1%.

These data come from PubChem BioAssay AID1346428 (National Center for Advancing Translational Sciences (NCATS), 2018).
